# Measured values from article PMC12136788.
# Some of the results follow.
# T1: UNK ZnF1-3 (human, UniProt Q9C0B0 31-174)
# T1 sequence: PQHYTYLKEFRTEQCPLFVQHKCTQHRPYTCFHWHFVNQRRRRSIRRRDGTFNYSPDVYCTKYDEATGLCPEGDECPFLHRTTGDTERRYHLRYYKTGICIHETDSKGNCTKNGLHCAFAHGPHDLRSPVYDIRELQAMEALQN
# B1: chr7:878492:878493:+_ENSG00000164828_ENST00000456758|hu_mus|FALSE|FALSE (ssRNA)
# RNA: GGGAGUUCUACAGUCCGACGAUCCGAAUCAAUAGCCUGGCUGUCCCCACUGCUGUACGAAGCUGUUGUGACCAGACGCAAGCUGCGGCGGGACAUCCUUGGAGAGUCAAAUACAGGUUCCAACUUGUGCUCAGUUUCAAAAUCCAACAGAGGAUUGAGCAUCA
# B2: 27889102_27889222_2550_3pUTR_ENSMUSG00000056692_ENSMUST00000114859|mouse|control|control (ssRNA)
# RNA: GGGAGUUCUACAGUCCGACGAUCUCUGGAGACAAGCAGCUCCGAGGCCAGAAGCAGGAAGAAUGGCUGGGCAUGCAUGUGCUCUAGGGUGGCAGCGUCCUCAGAGACUGGCCCCAAGAAGGUCCUCAGACAAAAGCCCCCUGACAACAGAGGAUUGAGCAUCA
# B3: chr5:145543945:145543946:-_ENSG00000133706_ENST00000545646|hu_hu|hu_hu_hu_mus_True|18_108 (ssRNA)
# RNA: GGGAGUUCUACAGUCCGACGAUCCUGAAUAGCCAGUGGUGGGAAAUAAUCAAGCCAGUGCUCUGCUUCAGAAAACUUCACUAUGUCGUCAUCAGAGAGCCCAAGGGAUUUCAUAAUGCCCCACUGGUACUUAGAAGAUCCUGCCAACAGAGGAUUGAGCAUCA
# B4: chr1:94943820:94943821:+_ENSG00000117528_ENST00000370214|hu_hu|motif|central (ssRNA)
# RNA: GGGAGUUCUACAGUCCGACGAUCCGCUGGGCCCUGAGCUCCAAUUGCACUCGUUAACUUAAAGAUAUACAAAACGGUGUCGGAAAAUGGCUUACUAAGAUUUGAAUACAGAUCGACUACACUGUUACAAAAUUUUUCUACAUCCAACAGAGGAUUGAGCAUCA
# B5: chr2:60072280:60072281:+_ENSMUSG00000026977_ENSMUST00000102748|mus_hu|FALSE|FALSE (ssRNA)
# RNA: GGGAGUUCUACAGUCCGACGAUCUCUUCGUGAAAAAAAAGUAGAUGACAUGCUAGAAGCUAUGCGUGACAGCAAUCUCCUCGUUGUCCGCCUACCUUCAUUGUCAGAAGAUUCUUGAAAUGGUCUUUGAGAUGAAACAACCCUCAACAGAGGAUUGAGCAUCA
# B6: chr7:44244176:44244177:+_ENSG00000106636_ENST00000223369|hu_mus|hu_hu_hu_mus_False|1_48 (ssRNA)
# RNA: GGGAGUUCUACAGUCCGACGAUCACUGUCGCUCCGGACGUAGACAUGGCAAAGAUACUCUUGUUCUUUGACAGAAGCUCUGCUGCCUUUCGAUGAGCGUUCCACAAUCAGUUGACUUGUAAAGGUCAUGAAUUCCUGAACGCUCAACAGAGGAUUGAGCAUCA
# Target: T1, UNK ZnF1-3
# Test: nsRBNS (natural sequence RNA bind-n-seq); RBNS binding buffer (assumed for nsRBNS): 25 mM Tris pH 7.5, 150 mM KCl, 3 mM MgCl2, 0.01% Triton X-100, 500 ug/ml BSA, 20 U/ml SUPERase-In, 4 C; UNK is unkempt and MSI1 is Musashi-1; names of the RNAs are library labels; protein concentration not given here; high values mean tight binding
row,Binder,binding signal [enrichment R]
1,B1,0.648
2,B2,1.15
3,B3,0.843
4,B4,1.37
5,B5,0.755
6,B6,0.403
